T1: UNK ZnF1-3 (human, UniProt Q9C0B0 31-174)
T1 sequence: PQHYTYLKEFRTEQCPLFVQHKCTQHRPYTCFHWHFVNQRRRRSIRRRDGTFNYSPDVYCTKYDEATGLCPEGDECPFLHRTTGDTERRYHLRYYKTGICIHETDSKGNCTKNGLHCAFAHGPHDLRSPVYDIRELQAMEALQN

B1: chr2:26332712:26332713:+_ENSG00000084733_ENST00000264710|hu_hu|motif|central (ssRNA)
RNA: GGGAGUUCUACAGUCCGACGAUCGUUUCUAAGCCAUUUGCUGAUGUUUUCAAAACUUUUACCAUUGGUGAUGUCAUAUACGGGCAUGAUACCCAUUGCGCCUCUGUAGUAGGAGGUUGUGAUGGUGUGAAAUCGCUCCUGGCCCAACAGAGGAUUGAGCAUCA
B2: chr2:179515052:179515053:+_ENSMUSG00000000305_ENSMUST00000000314|mus_hu|mus_mus_mus_hu_False|28_38 (ssRNA)
RNA: GGGAGUUCUACAGUCCGACGAUCGCUGUCCCAUGCAGUCACCGUGAACGCCACCUGCUCGGAGGGGACCUGCAGCUCCCGGGUGGCGAAGACUGUCCCAUCCGCCCCGACUUUGAAGUCCAUGCUGUUGGUCUCAUAUUGUGUCAACAGAGGAUUGAGCAUCA
B3: chr10:7398381:7398382:+_ENSMUSG00000040034_ENSMUST00000040135|mus_mus|FALSE|FALSE (ssRNA)
RNA: GGGAGUUCUACAGUCCGACGAUCACUUACUAGAGACUGGUGAACACCGGCCUGGUUACUUAAGCUAUGUGACAGGAAAGUACUACUUCUUCCUCCUUGGUGAAAGAGAGAAGACUUUUCAGGUGCAUCUGUGGAGGCAUCCCACAACAGAGGAUUGAGCAUCA
B4: chr6:38652254:38652255:-_ENSG00000124767_ENST00000373365|hu_hu|hu_hu_hu_mus_False|88_88 (ssRNA)
RNA: GGGAGUUCUACAGUCCGACGAUCCGAGAACUUCAUAGCAGGGAAGUCACAUUUUUGCAGGAGGGUCAGUCCAAGAACCCUCGUAUAAAAAUCCAGGGACUUCUUAGGAUCCUUAAUUCUUAGCAUCGUUUGCUGCAGUAGAAACAACAGAGGAUUGAGCAUCA
B5: chr12:39756943:39756944:-_ENSG00000139116_ENST00000544797|hu_mus|hu_hu_hu_mus_False|88_108 (ssRNA)
RNA: GGGAGUUCUACAGUCCGACGAUCGGUUUGGCUAUUACCCCCAAGGGAAUCCUGUAGGAGUCUUGUCAGCUUAGAGUCUCUGUAAGGGACAUGGGUGGCUCUCUUGCUCUUGUCCCCCAAGGCGCUGAUUACAUUCCCAAGAGCCAACAGAGGAUUGAGCAUCA
B6: chr3:49759264:49759265:-_ENSG00000173540_ENST00000308388|hu_mus|motif|central (ssRNA)
RNA: GGGAGUUCUACAGUCCGACGAUCCCCGAUAGACUUGUGGGGCAGCACGCUGGCUCCAUUGAGGUACAGUUCAUCAUUAACGGUGACAUCUUCACCCAGCACUGUUACAUUCUCCAUGCGCACCCAUUGGCCCACACGGCAGCGCAACAGAGGAUUGAGCAUCA
B7: chr1:187193504:187193505:+_ENSMUSG00000026615_ENSMUST00000046514|mus_mus|motif|central (ssRNA)
RNA: GGGAGUUCUACAGUCCGACGAUCAUCAAUCUCAGUGUGCUCCAUCAGGUUAGUCCCAUACAGCCCAGACGUAGUUGCAAUUCGGGCCAGGUAGCGCAGGAUUGAAUUCACGUCAGUGAAUGCCACAGUCUCAGAAACCCGAAGCAACAGAGGAUUGAGCAUCA
B8: chr3:176767854:176767855:-_ENSG00000177565_ENST00000430069|hu_hu|hu_hu_hu_mus_False|8_48 (ssRNA)
RNA: GGGAGUUCUACAGUCCGACGAUCGACAUCCUUGUUACUGGGCACGUCCUGCCCUCCUUCCCGUAUGCAGUGUCUAAGCACGAGCUGUGUAGAGCCACUCGUGCUGUUCUCACUGAGGUUCCAGAUUCUUGCUGUUGAGUCUCCCAACAGAGGAUUGAGCAUCA
B9: chr5:145543945:145543946:-_ENSG00000133706_ENST00000545646|hu_hu|hu_hu_hu_mus_True|1_38 (ssRNA)
RNA: GGGAGUUCUACAGUCCGACGAUCCUGAACGGCCAGUGGUGGGAAAUAAUCAAGCCAGUGCUCUGCUUCAGAAAACUUCACUAUGUCGUCAUCAGAGAGGCCAAGGGAUUUCAUAAUGUCCCACUGGUACUUAGAAGAUCCAGCCAACAGAGGAUUGAGCAUCA
B10: chr20:5919097:5919098:-_ENSG00000089195_ENST00000203001|hu_mus|FALSE|FALSE (ssRNA)
RNA: GGGAGUUCUACAGUCCGACGAUCACACACACUCUUAGGACAAGGAGAAAAUUUUAGUGAUGACACUUAAAGUGUAAUUACCAGCUGCAGAAUGCCUUGGAACAAACAUUAAUCUCCUAAGAGUUAAGAGGCAGAUUCCAUGCACAACAGAGGAUUGAGCAUCA
B11: chr7:75932113:75932114:+_ENSG00000106211_ENST00000248553|hu_hu|hu_hu_hu_mus_False|1_48 (ssRNA)
RNA: GGGAGUUCUACAGUCCGACGAUCCUGCGACCACUCAUCGGGCAACCGGGGCACCCCGAAAGCUUGAUCGAAGAGGCGGCUGUGUGCGUACCAGUCGUCCCGGAAUGGUUCCCAGCUCGGGCUCCGCAGCAGCGAGAGGACGCGCAACAGAGGAUUGAGCAUCA
B12: chr8:98289279:98289280:-_ENSG00000180543_ENST00000322128|hu_hu|motif|central (ssRNA)
RNA: GGGAGUUCUACAGUCCGACGAUCUUCCAAGCUGUUUAAGUAGCUCAGUACCUCUUUCUCUUGGCUAUUCAGAAAGGAUGCGGGCUGGGGAUGGUUCUGAAAUGCUUGCCCCCAGAAGCCCGGGAUAUUUUGGAUGAGGUGGUUCAACAGAGGAUUGAGCAUCA
B13: chr2:201943701:201943702:+_ENSG00000119013_ENST00000433898|hu_hu|FALSE|FALSE (ssRNA)
RNA: GGGAGUUCUACAGUCCGACGAUCAUUGCGGCCCCAUGGAUCCCUUAGCCCUUUUGCAGCCAGCUUCUUCUGGAUAGUUUCUAAUGGUGUCCCUUCUAUCUUCCAUUGUCUAUAAUCUGGAAGUUCCAUUUUAUGAUGUCCAUGCAACAGAGGAUUGAGCAUCA
B14: 127318676_127318796_1818_CDS_ENSMUSG00000036913_ENSMUST00000167588|mouse|control|control (ssRNA)
RNA: GGGAGUUCUACAGUCCGACGAUCCUUCCACGUUGCCCCCAGCGGCUUCACCUCGUGCUUGCUGUGCCUGCCUUCCUCCAGGCACAUGUAGCACACAGGGCUCCGACAGCUCACGCAGUACAUGCUGUAGUUCUCCAUCUCGUGCAACAGAGGAUUGAGCAUCA

The other results are listed elsewhere or left out.

This assay deals with T1, UNK ZnF1-3. The assay can be described thus: nsRBNS (natural sequence RNA bind-n-seq); RBNS binding buffer (assumed for nsRBNS): 25 mM Tris pH 7.5, 150 mM KCl, 3 mM MgCl2, 0.01% Triton X-100, 500 ug/ml BSA, 20 U/ml SUPERase-In, 4 C; UNK is unkempt and MSI1 is Musashi-1; names of the RNAs are library labels; protein concentration not given here; high values mean tight binding.
As for B1, the binding signal turned out to be 0.588 enrichment R.
The value for B2 was 0.733 enrichment R.
With B3 the figure was 0.906 enrichment R.
With B4 the figure was 1.01 enrichment R; with B5, 0.907 enrichment R.
B6 displayed a binding signal of 0.927 enrichment R.
With B7 the figure was 1.19 enrichment R; with B8, 0.456 enrichment R.
The value for B9 was 1.4 enrichment R; that for B10 was 1.23 enrichment R.
With B11 the figure was 0.605 enrichment R; with B12, 1.05 enrichment R; with B13, 0.597 enrichment R.
B14 had a binding signal of 0.492 enrichment R.

Source of the values: publication PMC12136788.
